Test results: the RNAGym collection of RNA variant scans (doi:10.1093/nar/gkz1192)
Read counts are not given, so values of variants with three or more changes are uncertain.

B1: CPEB3 Ribozyme (parent)
chain: UAACAGGGGGCCACAGCAGAAGCGUUCACGUCGCAGCCCCUGUCAGAUUCUGGUGAAUCUGCGAAUUCUGCUGUAUAUCUC

Variants of: B1
Assay: self-cleavage, relative activity (ratio to wild type); higher = more cleavage; in vitro, sequencing
Procedure, shortened: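 CPEB3 self-cleaving ribozyme mutant libraries were made by rounds of error-prone PCR, barcoded, and transcribed in vitro with T7 RNA polymerase for 5 hours at 37°C. Cleavage occurred during transcription and a 15 min DNase I step before EDTA stop. RNAs were reverse transcribed with template switching and Illumina-sequenced, with DNA sequencing mapping barcodes to variants. Relative activity is the variant's cleaved/total read fraction divided by wild type's (minimum 5 reads), averaged across three batches.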

Variant | self-cleavage
UAACUGGGGGCCACGGCAGGAGCGUUCACGUCGCAGCCCCUGUCAGAUUCAGGCGAAUCUGCGAACUCUGCUGUAUAUCUC [A5U A15G A20G U51A U54C U66C] | 0.14
UAACUGGGGGCCACGGCAGAAGCGUACACGUCGCAGCCCCUGUCAUAAUCUGGUGAAUCUGCGAAUUCUGCUGUAUAUCUC [A5U A15G U26A G46U U48A] | 0.37
UAACUGGGGGCCACUGCAGAAGCGUUCACGCCGCAGCCCCUGUCAGAUUCUGGUGAAUCUGCGAAUUCUGCUGUAUAUCCC [A5U A15U U31C U80C] | 0.72
UAACUGGGGGCCACGGCAGAAGCGUUCACGGCGCAGCCCCUGUCAGAUUCCGGUGAAUCUGCGAAUUCUGCUGUAUAUCUC [A5U A15G U31G U51C] | 0.78
UAACUGGGGGCCACGGCAUAAGCGUUCACGUCGCAGCCCCUGUCAGAUUCUGGCGAAUCUGCGAAUUCUGCUGUAUAUCUC [A5U A15G G19U U54C] | 0.22
UAACUGGGGGCCACUGCAGAAGCGUUCACGUCGCAGCACCCGUCAGAUUCUGGUGAACCUGCGAUUUCUGCUGUAUAUCAC [A5U A15U C38A U41C U58C A65U U80A] | 0.07
UAACUGGGGGCCACGGCAGAAGCGUUCACGUCGAAGCCCCUGUCGGAUUCUGGUGAAUCCGCGAAUUCUGCUGUAUAUCUC [A5U A15G C34A A45G U60C] | 0.59
UAACUGGGGGCCUCAGCAGAAGUGUUCACGUCGCAGCCCCUGUCGGAUUCUGGUGAAUCUGCGAAUUCUGCUGUAUAUCUC [A5U A13U C23U A45G] | 0.17
UAACUGGGGGCCGCAGCAGAAGCGUUCACGCCGCAGCCCCUGUCAGAUUCUGGUGUAUCUGCGAAUUCUGUUGUAUAUCUC [A5U A13G U31C A56U C71U] | 0.04
UAACUGGGGGCCACAGCGGUAGCGCUCACGUCGCAGCCCCUGUCAGAUUCUGGUGGAACUGCGAAUUCUGCUGUAUAUCUC [A5U A18G A20U U25C A56G U58A] | 0.27
UAACUGGGGGCCACAGCGGAUGCGUUCACGUCGCAGCCCCUGUCAGAAUCUGGUGAAUCUGCGAAUUCUGCUGUAUAUCUC [A5U A18G A21U U48A] | 0.41
UAACUGGGGGCCACGGCAGAAGCGUUCACGUCGCAGCCCCUGUCAGAUUCUGGUGAGUCUGCGAAUUCUGCUGUAUAUCUC [A5U A15G A57G] | 0.91
UAACUGGGGGCCUCAGCAGAAGCUCUCACGUCGCAGCCCCUGUCUGAUUCAGGUGAAUCUGCGAAUUCUGCUGUAUAUCUC [A5U A13U G24U U25C A45U U51A] | 0.1
UAACUGGGGGCCUCAGCAGAAGCGUUCACGACGCAGCCCCUGUCAGAUUCUGGUGAAUCUGCGAACUCUGCUGUAUAUCUC [A5U A13U U31A U66C] | 0.21
UAACUGGGGGCCUCAGCAGAAGUGUUCACGUCGCUGCCCCUGUCAGAUUCAGGUGAAUCUGCGAGUUCUGCUGUAUAUCUC [A5U A13U C23U A35U U51A A65G] | 0.15
UAACUGGGGGCCUCAGCAGAAGCGUACACGUCGCAGCCCCUGUCAGAUUCUGGUGAAUCUGCGGAUUCUGCUCUAUUUCUC [A5U A13U U26A A64G G73C A77U] | 1.29
UAACUGGGGGCCUCAGCAGAAGCGUUCACGCCGCAGCCCCCGUCAGAUUCCGGUGAAUCUGCGAAUUCUGCCGUAUAUCUC [A5U A13U U31C U41C U51C U72C] | 0.7

Variant | self-cleavage
UAACUGGGGGCCACAGCGGAGGCGUUCACGUCGCAGCCCCUGUCAGAUUCUGGUGAAUCUGCGAAUUCUGCUGUAUAUCUC [A5U A18G A21G] | 0.45
UAACUGGGGGCCACUGCAGAAGCGUUCACGUCGCAGCCCCUGUCAGAUUCUGGUGGAUCUGCGAUUUCUGCCGUAUAUCUC [A5U A15U A56G A65U U72C] | 0.12
UAACUGGGGGCCACGGCAGAAGCGUUCACGUCGCAGCCCCUGUCAGAUUCUGGUGAAUCUGCGAAUUCUGCUCUAUAUCUC [A5U A15G G73C] | 1.23
UAACUGGGGGCCACGGCAGAAGCGUUCACGUCGCAGCCCCUGUCAGAUUCUGGUGAAUCUGCGGAUUCUGCUGUAUAUCUC [A5U A15G A64G] | 0.98
UAACUGGGGGCCACGGCAGAAGCGUACACGUCACAGCCCCUGUCAGAUCCUGGUGUAUCUGCGAACUCUGCUGUAUAUCUC [A5U A15G U26A G33A U49C A56U U66C] | 0.07
UAACUGGGGGCCGCAGCAGAAGCGUUCACGUCGCAGCCCCAGUCAGAUUCUGGUGGAUCUGCGAAUUCUGCUGUAUAUCUC [A5U A13G U41A A56G] | 0.33
UAACUGGGGGCCACGGCAGAAGCGUUCACGUCUCAGCCCCUGUCAGAUUCUGGUGAAUCUGCGAAUUCUGCUGUAUAUCCC [A5U A15G G33U U80C] | 0.54
UAACUGGGGGCCUCAGCAGGAGCGUACACGACGCAGCCCCUGUCAGAUUCUGGUGAAUCUGCGAAUUCUGCUGUAUAUCUC [A5U A13U A20G U26A U31A] | 0.59
UAACUGGGGGCCACUGCAGAAGCGUUCACGUCGCAGCCCCUGUCGGAUUCUGGUGAAUCUGCGAAUUGUGCUGUAUAUCCC [A5U A15U A45G C68G U80C] | 0.22
UAACUGGGGGCCACUGCAGAAGCGUUCACGUCGCAGCCCCUGCCAGAUUCUGGAGAAUCUGCGAAUUCUGCUGUAUCUCUC [A5U A15U U43C U54A A77C] | 0.52
UAACUGGGGGCCGCAGCAGAAGCGUUCACGACGCAGCCCCUGUCAGACUCUGGUGUAUCUGCGAAUUCUGCUGUAUAUCUC [A5U A13G U31A U48C A56U] | 0.27
UAACUGGGGGCCUCAGCAGGAGCGUUCACGUCGCAGCCCCUGGCAGAUUCUGGUGAAUCUGCGAAUUCUGCUGUAUAUCUC [A5U A13U A20G U43G] | 0.09
UAACUGGGGGCCGCAGCAGAAGCGUUCACGUCGCAGCCCCUGUCAGAUUCUGGAGGACCUGCGAAUUCUCCUGUAUAUCUC [A5U A13G U54A A56G U58C G70C] | 0.2
UAACUGGGGGCCUCAGCAGAAGCGUUCACGUCGCAGCCCCUGUCAGAUUCUGGUGAAUCUGCGAAUUCUGCUGUAAAUCUC [A5U A13U U76A] | 1.21
UAACUGGGGGCCUCAGCAGAAGCGUUCACGUCGCAGCCCCUGUCAGAUUCUGGUGAAUCUGCGAACUCUGCUGUAUAUCUC [A5U A13U U66C] | 0.76
UAACUGGGGGCCUCAGCAGGAGCGUUCACGUCGUAGCCCCUGUCAGAUUCUGGUGAAUCUGCGAAUUCUGCUGUAUAUCUC [A5U A13U A20G C34U] | 0.38
UAACUGGGGGCCACAGCGGAAGCGUUCACGUCGCAGCCCCUGUCAGAUUCUGGUGAGUCUGCGAAUUCUGCUGUAUAUCUC [A5U A18G A57G] | 0.58
